Source: PubChem BioAssay AID1346428 (National Center for Advancing Translational Sciences (NCATS), 2018)
Several values for one entry are separate records, joined by “and”; a condition that tells them apart may be missing. Identical values can stand only once. About 1,200 (2.5%) of roughly 48,000 compounds were called active. Roughly 2% stayed inconclusive and do not appear here.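 Rule for the calls: active = activation of at least 60% and not above a set upper limit (about 1 call in 100 departs from these limits); inconclusive = activation of 40% to 60%, or above that upper limit; inactive = activation under 40%.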 Some of the results follow.
Note: 0% is about no effect.

These compounds were tested against Probable G-protein coupled receptor 32 (Homo sapiens) (UniProt O75388) (assay: qHTS for Agonists of Human Resolvin D1 Receptor DRV1). Settings: CHO-K1 GPR32 beta-arrestin PathHunter luminescence, 90 min; at 76.9 µM; stronger effect = higher value; zero percent set by DMSO-only wells.
UniProt O75388, sequence (O75388 whole entry, looked up, the tested form may be a part): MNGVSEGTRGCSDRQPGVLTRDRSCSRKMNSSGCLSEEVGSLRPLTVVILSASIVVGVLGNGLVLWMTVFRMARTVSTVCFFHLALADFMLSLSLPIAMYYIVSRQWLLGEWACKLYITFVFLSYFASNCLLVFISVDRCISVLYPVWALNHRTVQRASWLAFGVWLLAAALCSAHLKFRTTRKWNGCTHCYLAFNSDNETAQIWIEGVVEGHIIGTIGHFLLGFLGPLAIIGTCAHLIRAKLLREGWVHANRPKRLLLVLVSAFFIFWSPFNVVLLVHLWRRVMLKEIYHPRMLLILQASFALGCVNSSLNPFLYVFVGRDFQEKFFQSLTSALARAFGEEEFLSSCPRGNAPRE
How it was run: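 Agonism was scored as beta-arrestin recruitment to ProLink-fused GPR32 in stably transfected CHO-K1 cells, giving a chemiluminescent beta-Gal signal; compounds were incubated 90 min at 37 °C.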
`Cc1ccc(CN2CCN(C3CCN(C(=O)OC(C)(C)C)CC3)C(=O)C2=O)cc1` was tested, and the activation was inactive: -9.32%. For `CC(C)(C)c1ccc(C(=O)Nc2ccccc2C(=O)OCc2cc(=O)n3ccsc3n2)cc1`, the activation was inactive: -1.62%. `CCC(=O)N1CCc2cc(Br)cc(S(=O)(=O)CCC(=O)Nc3ccccc3C)c21` was tested, and the activation was inactive: -3.18%. In the case of `Cc1cc2nc3c(=O)n(C)c(=O)n(C)c3nc2cc1N=CN(C)C`, the activation is reported as inactive: 14.4%. `CCOC(=O)CC(NC(=O)Cn1nnc(-c2ccccc2C)n1)c1ccc(OC)cc1` (centres undefined) was tested, and the activation was inactive: 7.8%. `COc1ccc(-c2nc(SCC(=O)NCCCc3ccccc3)n[nH]2)cc1` was tested, and the activation was inactive: 9.8%. `COc1ccc(NC(=O)CCc2c(C)nn(-c3ccc(N4CCOCC4)nn3)c2C)cc1Cl` was tested, and the activation was inactive: -12.2%. For `Cc1ccc2occ(CC(=O)Nc3ccc(S(N)(=O)=O)cc3)c2c1`, the activation was inactive: 26%. `CCN(CC)CCCNC(=O)c1oc2c(c1C)-c1nn(Cc3ccc(Cl)cc3)cc1CC2` was tested, and the activation was inactive: -11.3%. `Cc1cccc(-c2noc(C3CC(=O)N(c4ccc5c(c4)OCCO5)C3)n2)c1` (centres undefined) was tested, and the activation was inactive: -5.92%. With `Cc1ccc(N(CC(=O)NC(C)c2ccccc2)S(=O)(=O)c2c(C)noc2C)cc1` (centres undefined) the activation was inactive: 12.8%. For `COc1ccc(NC(=O)Cn2c(C)c3cnn(-c4ccccc4)c(=O)c3c2C)c(OC)c1`, the activation was inactive: -0.997%. `Cc1cc(OCC(=O)Nc2sc3c(c2C(N)=O)CCCC3)ccc1C(C)C` was tested, and the activation was inactive: 22.5%. For `CCc1ccc(C(=O)c2cn(CC(=O)Nc3ccc(F)cc3)c3cc4c(cc3c2=O)OCO4)cc1`, the activation was inactive: 13.2%. `CCOc1ccc(C2c3c(-c4ccccc4O)n[nH]c3C(=O)N2Cc2ccncc2)cc1` (centres undefined) was tested, and the activation was inactive: -7.06%. For `CCCc1nnc(NC(=O)c2nc(S(=O)(=O)Cc3ccc(C)cc3)ncc2Cl)s1`, the activation was inactive: 15.3%. In the case of `O=C(c1ccc2c(Cl)c3c(nc2c1)CCCC3)N1CCN(c2ccccc2)CC1`, the activation is reported as inactive: -1.46%. `CCOC(=O)c1cc(-c2ccccc2)n(CCCC(=O)Nc2ccc(CC)cc2)c1C` was tested, and the activation was inactive: -14.7%. For `CC(C)(C)C1CCc2onc(C(=O)Nc3sc4c(c3C(N)=O)CCCC4)c2C1` (centres undefined), the activation was inactive: -25.5%. With `Cc1c(Cl)cccc1NC(=O)CCS(=O)(=O)c1ccc(Br)s1` the activation was inactive: 23.3%. For `NC(=O)c1cc(S(=O)(=O)NCC2CCC(C(=O)Nc3cccc(Cl)c3)CC2)cs1` (centres undefined), the activation was inactive: 7.48%. In the case of `Cc1c2cnn(-c3ccccc3)c(=O)c2c(C)n1CCCC(=O)Nc1ccc(F)cc1F`, the activation is reported as inactive: 2.49%. With `Cc1ccc(NC(=O)CSc2nc3ccccc3c3nc(CCn4c(C)nc5ccccc54)nn23)cc1F` the activation was inactive: -10.9%. `CCOc1ccccc1NS(=O)(=O)c1c(-c2ccc(C)cc2)csc1C(=O)OC` was tested, and the activation was inactive: -13.8%. `CCOC(=O)c1cc(-c2ccccc2)n(CC(=O)NCc2ccccc2OC)c1C` was tested, and the activation was inactive: 5.85%. For `COCCNC(=O)c1ccc2c(c1)N(Cc1cccc(Cl)c1)C(=O)c1ccccc1S2=O` (centres undefined), the activation was inactive: -4.62%. For `Cc1ccc(C)c(NC(=O)CCNS(=O)(=O)c2ccc3c(c2)CCCC(=O)N3)c1`, the activation was inactive: 12.4%. For `CN(C(=O)CSc1nnc2[nH]c(=O)cc(-c3ccccc3)n12)c1ccccc1`, the activation was inactive: -4.44%. In the case of `Cn1c(=O)n(C)c2cc(S(=O)(=O)Nc3ccccc3C(=O)O)ccc21`, the activation is reported as inactive: 7.75%. In the case of `Fc1ccc(CNc2ncnc3c2c(-c2ccccc2)cn3-c2ccccc2)cc1`, the activation is reported as inactive: -8.91%. In the case of `Cc1ccc(C)c(N2CCN(C(=O)CN3C(=O)CSc4c3c(C)nn4-c3ccccc3)CC2)c1`, the activation is reported as inactive: -18.9%. With `O=C(Nc1ccc(F)c(F)c1)C1CCCN(S(=O)(=O)c2cccc3nonc23)C1` (centres undefined) the activation was inactive: 2.81%. With `Cc1ccc(S(=O)(=O)c2[nH]c(-c3ccccc3)nc2SCC(=O)O)cc1` the activation was inactive: -3.96%. `COc1ccc(N2CCN(CC(O)COc3ccc(C(C)(C)C)cc3)CC2)cc1` (centres undefined) was tested, and the activation was inactive: 10.3%. For `Cc1ccc2c(CNCCc3ccc(Cl)cc3)c(C(=O)O)n(Cc3ccc(F)cc3)c2c1`, the activation was inactive: 37%. In the case of `CCOC(=O)c1ccc(NC(=O)CC2C(=O)N(c3ccccc3)C(=O)N2Cc2cccs2)cc1` (centres undefined), the activation is reported as inactive: 30.8%. In the case of `CCOc1ccc(CNC(=O)c2ccc3nc(Cc4ccc(OC)cc4)oc3c2)cc1OC`, the activation is reported as inactive: 7.98%. `O=c1c2sc3ccccc3c2n(Cc2ccccc2)c(=O)n1Cc1ccccc1` was tested, and the activation was inactive: -3%. For `CCc1ccc(CN(C(=O)c2nc(SC)ncc2Cl)C2CCS(=O)(=O)C2)cc1` (centres undefined), the activation was inactive: -15.7%. With `CCC(=O)N1c2ccccc2CC1C(=O)N1CCN(c2ccccc2)CC1` (centres undefined) the activation was inactive: 2.56%. In the case of `Cc1ccc(Cl)cc1NC(=O)c1ccc(-c2nc(CSc3ccccc3)c(C)o2)cc1`, the activation is reported as inactive: -1.57%. For `CCN(C(=O)Cc1c(C(=O)O)[nH]c2ccccc12)c1ccc(OC)cc1`, the activation was inactive: 9.41%. `CC(C)Cc1nn2c(=O)cc(COC(=O)c3ccc(NC(=O)c4cccs4)cc3)nc2s1` was tested, and the activation was inactive: -10.1%. In the case of `CCOc1ccccc1NC(=O)Cn1c(=O)ccc2cc(S(=O)(=O)N3CCC(C)CC3)ccc21`, the activation is reported as inactive: -15.5%. With `CCOC(=O)c1ccc(NC(=O)CCc2c(C)nc3c(c(C)nn3C)c2C)cc1` the activation was inactive: 35.7%. For `O=S(=O)(NCCc1csc(-c2ccc(F)cc2)n1)c1ccc(Cl)cc1`, the activation was active: 63.6%. With `O=c1c2c3c(sc2nnn1Cc1ccc(Br)cc1)CCCC3` the activation was inactive: -8.57%. For `Cc1ccc(OCCCn2c(C3CC(=O)N(c4cccc(Cl)c4)C3)nc3ccccc32)c(C)c1` (centres undefined), the activation was inactive: 6.99%. With `CCOC(=O)C1CCN(C(=O)C2COc3ccccc3C2)CC1` (centres undefined) the activation was inactive: -7.27%. With `O=C(c1cc2ccccc2oc1=O)N(Cc1cccc(Cl)c1)C1CCS(=O)(=O)C1` (centres undefined) the activation was inactive: -12.6%. In the case of `Cc1ccc(CN2CCSc3ccc(C(=O)N4CCN(c5cccc(C)c5C)CC4)cc32)cc1`, the activation is reported as inactive: -13%. With `O=C(CSc1nccn1Cc1ccc(Cl)cc1)NC1CCCC1` the activation was inactive: -0.725%. For `COc1ccc(-c2cnc(C)o2)cc1S(=O)(=O)Nc1ccc(C)c(F)c1`, the activation was inactive: -32.9%. `CCOc1ccc(NC(=O)CSc2ncc3c(n2)-c2ccccc2N(C)S3(=O)=O)cc1` was tested, and the activation was inactive: 20.1%. With `Cc1ccc(NC(=O)N2CCC(n3c(C)nc4cccnc43)CC2)c(Cl)c1` the activation was inactive: 1.36%. With `Clc1ccccc1-c1nc(Nc2ccccc2)nc2ccc(Br)cc12` the activation was inactive: -11%. With `COCCNC(=O)CCC(=O)NNc1nc2ccccc2c2nc(-c3ccccc3)nn12` the activation was inactive: -2.89%. For `Cc1ccc(NC(=O)c2cc(S(=O)(=O)N3CCOCC3)c(Cl)cc2Cl)cc1`, the activation was active: 84%. `CCCCC(CC)COC(=O)C(C#N)=C(c1ccccc1)c1ccccc1` (centres undefined) was tested, and the activation was inactive: -3.41%. With `COc1ccc(CNC(=O)Nc2cn(CC(C)C)c(=O)c3ccccc23)c(OC)c1` the activation was inactive: -8.66%. In the case of `Nc1c2c(nc3ccccc13)CCCC2`, the activation is reported as inactive: 2.12% and inactive: 11.2%. For `CCc1ccc(CNC(=O)c2ccc(CSc3nc4ccncc4n3Cc3ccccc3)cc2)cc1`, the activation was inactive: -15.7%. `CCC(Oc1ccccc1)C(=O)Nc1nnc(S(=O)(=O)Nc2ccccc2)s1` (centres undefined) was tested, and the activation was inactive: 13.6%. With `COC(=O)CCc1sc(Nc2ccc(OC)cc2)nc1-c1ccc(OC)cc1` the activation was inactive: -31.4%. With `Cc1ccccc1NC(=O)CC1C(=O)NCCN1C(=O)c1cccc(Cl)c1` (centres undefined) the activation was inactive: 11.4%. In the case of `CC(=O)c1ccc(N2CCN(C(=O)NCc3noc4ccc(C)cc34)CC2)cc1`, the activation is reported as inactive: -4.77%. In the case of `Cc1noc(-c2ccccc2OCC(=O)Nc2cccc([N+](=O)[O-])c2)n1`, the activation is reported as inactive: -3.24%. `Cc1ccc(S(=O)(=O)NCc2nc3nc(C)cc(C)n3n2)c(C)c1` was tested, and the activation was inactive: -12%. With `Cc1ccc(C)c(N(C)C(=O)C2CCN(S(=O)(=O)c3cccc4nsnc34)CC2)c1` the activation was inactive: 1.13%. With `COc1ccc(-c2nnn3c2nc(N2CCCC(C)C2)c2ccccc23)cc1` (centres undefined) the activation was inactive: 2.69%. With `CC(=O)c1cc(C(=O)Nc2cccc(C)c2)c2ccccn12` the activation was inactive: -4.57%. In the case of `COc1ccc(N2CCN(C(=O)CCS(=O)(=O)c3cc4c(cc3Cl)NC(=O)CO4)CC2)cc1`, the activation is reported as inactive: 4.57%. `CCN1c2ccccc2-c2nc(SCC(=O)Nc3ccc(C)c(Cl)c3)ncc2S1(=O)=O` was tested, and the activation was inactive: -15.4%. In the case of `CCOC(=O)c1ccccc1NC(=O)CSc1nc2ncccc2[nH]1`, the activation is reported as inactive: -0.681%. `CCOC(=O)c1c(C)c(-c2ccccc2)n(CC(=O)Nc2cc(OC)cc(OC)c2)c1C` was tested, and the activation was inactive: -8.03%. `COc1cc(C2NC(=O)NC(C)=C2C(=O)Nc2cc(C)cc(C)c2)ccc1O` (centres undefined) was tested, and the activation was inactive: -1.79%. `CCOC(=O)c1noc2ncnc(N3CCN(c4ccccc4OC)CC3)c12` was tested, and the activation was inactive: -14.7%. In the case of `COC(=O)CNC(=O)Nc1cc(C(=O)NCc2ccc(C)cc2)ccc1N1CCCC1`, the activation is reported as inactive: -9.45%. For `CC(C)(C)NS(=O)(=O)c1ccc2nc(NC(=O)c3cccnc3)sc2c1`, the activation was inactive: 39.2%. In the case of `O=C(Nc1ccc(F)cc1F)c1ccc(CN2CC(=O)N3CCCCC3C2=O)cc1` (centres undefined), the activation is reported as inactive: 0.798%. For `CC(=O)N1c2ccccc2CC1C(=O)N1CCN(c2ccc(F)cc2)CC1` (centres undefined), the activation was inactive: -1.87%. With `COc1ccc(C)cc1NC(=O)c1oc2ccc(S(=O)(=O)N(C)C3CCCCC3)cc2c1C` the activation was inactive: -13%. With `COC(=O)C1CCN(S(=O)(=O)c2cc3c4c(c2)C(C)C(=O)N4CCC3)CC1` (centres undefined) the activation was inactive: 4.25%. For `Cc1ccc(Cn2c(SCC(=O)NCc3ccc(Cl)cc3)nc3ccsc3c2=O)cc1`, the activation was inactive: -4.1%.
